# The whole screen tested about 390,000 compounds, of which about 2,200 (0.56%) were called active. Inconclusive means that the source gave no clear call. Such entries were picked first, then a sample of the others. The call rests on the fitted dose curve; in most records, active means well fitted inhibition curve with a large enough effect; inconclusive means small, poorly fitted or top-dose-only effect; inactive means no such curve, though single readings can be large or run the other way. Where the call is inconclusive, the potency comes from a doubtful curve fit.
# Biological target: Chromobox protein homolog 1 (Homo sapiens) (UniProt P83916)
# Chain of UniProt P83916 (P83916 whole entry, looked up): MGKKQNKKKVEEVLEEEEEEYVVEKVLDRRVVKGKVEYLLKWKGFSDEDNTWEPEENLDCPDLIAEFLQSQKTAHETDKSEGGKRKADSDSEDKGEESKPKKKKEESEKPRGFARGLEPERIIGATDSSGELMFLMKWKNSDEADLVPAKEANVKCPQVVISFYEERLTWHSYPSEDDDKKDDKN
# Assay: HTS for Inhibitors of HP1-beta Chromodomain Interactions with Methylated Histone Tails; further: nearly all actives have a fitted effect of over 70% in size
# Details: AlphaScreen HP1-beta / biotin-H3K9me3 peptide binding; series mostly up to 114 µM
# Summary of the method: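 Compound inhibition of the preformed complex between 50 nM HP1-beta and 50 nM biotinylated H3K9me3 peptide was read by AlphaScreen. Buffer was PBS pH 7.4 with 0.01% Tween-20. Incubations ran 30 min at room temperature, with 10 ug/mL donor/acceptor beads.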
# Potency means the concentration at half of the fitted maximal effect; tags describe the fitted curve by direction and shape.
row,Compound,Potency
1,O=[N+]([O-])c1ccc(O)c2cccnc12,"inconclusive: 89.1 µM [inhibitor, partial curve, poor fit]"
2,COc1ccc(NC(=O)Cn2c(=O)nc(-c3ccccc3)c3ccccc32)cc1OC,inactive
3,O=C(Nc1cccc(O)c1)c1ccc2c(c1)C(=O)N(Cc1ccco1)C2=O,inactive
4,COc1cc(OC)c(OC)cc1CN1CCN(Cc2ccc(SC)cc2)CC1,"inconclusive: 14.1 µM [inhibitor, partial curve, poor fit]"
5,CCN(CC(=O)NCc1ccc(F)cc1)C(=O)CN1CCN(c2ccc(OC)cc2)CC1,active: 17.8 µM
6,COc1ccccc1N1CCN(Cc2ccc(-c3ccccc3[N+](=O)[O-])o2)CC1,"inconclusive: 44.7 µM [inhibitor, partial curve, poor fit]"
7,COc1cccc(CN(C)CC(=O)Nc2ccccc2C(C)C)c1,"inconclusive: 15.8 µM [inhibitor, full curve]"
8,OCc1ccnc2c(O)cccc12,inactive
9,CCCCN(C/C=C/c1ccccc1OC)Cc1ccccc1,"inconclusive: 79.4 µM [inhibitor, single point]"
10,COc1cc(NCCC(=O)c2cccs2)c(OC)cc1Cl,active: 56.2 µM
11,COc1ccc(OC)c(S(=O)(=O)N2CCC(c3nc4ccccc4[nH]3)CC2)c1,"inconclusive: 22.4 µM [inhibitor, single point]"
12,CC[n+]1ccc(/C=C2\Sc3ccccc3N2CCCS(=O)(=O)[O-])c2ccccc21,"inconclusive: 89.1 µM [inhibitor, single point]"
13,O=C(O)Cc1ccc(-n2cccc2)cc1,active: 25.1 µM
14,Cc1ccc(-c2[nH]ncc2CNC(C)c2ccccc2)cc1 (stereo not drawn),"inconclusive: 14.1 µM [inhibitor, full curve, poor fit]"
15,Cc1ccc(C2Nc3cccc4cccc(c34)N2)s1,"inconclusive: 25.1 µM [inhibitor, partial curve, poor fit]"
16,Cc1[nH]n(-c2ccccc2)c(=O)c1N=Nc1c(O)cc(S(=O)(=O)N(C)C)c2ccccc12,active: 17.8 µM
17,CCOc1ccc2c(ccc(/C=C/c3cc(C)c4cccnc4c3O)[n+]2C)c1,"inconclusive: 56.2 µM [inhibitor, single point]"
18,CCCCC(=O)NC(=S)Nc1c(C)cc(Br)cc1C,inactive
19,COc1ccc(-c2nn(-c3ccccc3)cc2/C=C2/SC(=S)N(CCC(=O)O)C2=O)c(C)c1,"inconclusive: 20 µM [inhibitor, full curve]"
20,CC[n+]1c(C)n(-c2ccccc2)c2ccc(NC(C)=O)cc21,"inconclusive: 89.1 µM [inhibitor, single point]"
21,CC(C)c1ccc(NC2CCCN(C(=O)c3cnn(C(C)C)c3)C2)cc1 (stereo not drawn),inactive
22,CC1CC(C)CN(c2cc3c(cc2[N+](=O)[O-])C(=O)N(c2ccccc2)C3=O)C1 (stereo not drawn),"inconclusive: 31.6 µM [inhibitor, single point]"

row,Compound,Potency
1,COc1ccc(CC2(C)OC(c3ccc(C)c([N+](=O)[O-])c3)=NN2C(C)=O)cc1 (stereo not drawn),active: 70.8 µM
2,Nn1c(Cc2ccc(Br)cc2)n[nH]c1=S,"inconclusive: 8.91 µM [inhibitor, full curve]"
3,O=C(NC1CCS(=O)(=O)C1)c1cc(-c2ccccc2)nc2ccccc12 (stereo not drawn),inactive
4,CC1CN(CCOc2ccc(Cl)cc2Cl)CC(C)O1 (stereo not drawn),"inconclusive: 35.5 µM [inhibitor, single point]"
5,O=C(COC(=O)c1n[nH]c2ccccc12)Nc1ccc(Cl)cc1[N+](=O)[O-],"inconclusive: 39.8 µM [inhibitor, partial curve]"
6,Cn1c(=O)c2c(SCc3cccnc3)nc(CC(C)(C)C)nc2n(C)c1=O,inactive
7,CC(C)Cn1c(O)c(N=NC(=O)c2cccc(S(=O)(=O)N3CCCCC3)c2)c2ccccc21,"inconclusive: 14.1 µM [inhibitor, partial curve]"
8,O=C(CN1CCC(Cc2ccccc2)CC1)Nc1ccc2c(c1)OCCO2,"inconclusive: 15.8 µM [inhibitor, full curve]"
9,CCOc1cc(S(=O)(=O)N(CC)CC)ccc1F,inactive
10,CC1=C(C(N)=O)C(c2ccc(C)cc2)n2nc(SCc3ccccc3)nc2N1 (stereo not drawn),inactive
11,CC(=O)N1N=C(c2cccc([N+](=O)[O-])c2)OC1c1cccc(Br)c1 (stereo not drawn),"inconclusive: 50.1 µM [inhibitor, partial curve]"
12,O=C(O)C1OC(Oc2c(-c3ccc(O)c(O)c3)oc3cc(O)cc(O)c3c2=O)C(O)C(O)C1O (stereo not drawn),"inconclusive: 39.8 µM [inhibitor, partial curve]"
13,CCC(CC)c1nnc(NC(=O)C2CC(=O)N(CCc3ccc(F)cc3)C2)s1 (stereo not drawn),"inconclusive: 56.2 µM [inhibitor, partial curve, poor fit]"
14,CCc1ccc(/C=C2\SC(=S)N(CCCC(=O)Nc3ccccn3)C2=O)cc1,"inconclusive: 39.8 µM [inhibitor, single point]"
15,Cc1noc(C)c1CNCc1ccccc1,"inconclusive: 56.2 µM [inhibitor, partial curve, poor fit]"
16,CCOc1cc(N2CCOCC2)c(OCC)cc1NC(=O)c1ccc(OC(C)C)cc1,"inconclusive: 50.1 µM [inhibitor, partial curve, poor fit]"
17,Cc1cc(C(=O)OCC(=O)NCc2ccco2)c(C)n1-c1ccc(F)cc1,"inconclusive: 89.1 µM [inhibitor, single point]"
18,O=CNn1cnc2c(oc3nc(-c4ccccc4)cc(-c4ccco4)c32)c1=O,"inconclusive: 79.4 µM [inhibitor, single point]"
19,COc1ccc(CCNc2oc(COc3ccccc3)nc2C#N)cc1,"inconclusive: 31.6 µM [inhibitor, single point]"
20,CN(C)S(=O)(=O)c1cccc(C(=O)Nc2cc(S(=O)(=O)N3CCOCC3)ccc2N2CCCC2)c1,"inconclusive: 31.6 µM [inhibitor, partial curve]"
21,Cc1ccn2c(Nc3ccccc3)c(-c3c[nH]c4ccccc34)nc2c1,"inconclusive: 15.8 µM [inhibitor, partial curve, poor fit]"

# Reference: PubChem BioAssay AID540317 (National Center for Advancing Translational Sciences (NCATS), 2011)
